Laboratory results as given in PMC5928365.
Results are given in words; binding and its absence hold for the method and conditions named. Binding seen in cells or lysates may run through a third protein. Some binding calls cover weakened binding; strength is not graded here. For part of these data: Sequences can lack the tags named with a protein.

By UniProt entry, the sequences of proteins in these tests, tags left out.
UniProt P49674: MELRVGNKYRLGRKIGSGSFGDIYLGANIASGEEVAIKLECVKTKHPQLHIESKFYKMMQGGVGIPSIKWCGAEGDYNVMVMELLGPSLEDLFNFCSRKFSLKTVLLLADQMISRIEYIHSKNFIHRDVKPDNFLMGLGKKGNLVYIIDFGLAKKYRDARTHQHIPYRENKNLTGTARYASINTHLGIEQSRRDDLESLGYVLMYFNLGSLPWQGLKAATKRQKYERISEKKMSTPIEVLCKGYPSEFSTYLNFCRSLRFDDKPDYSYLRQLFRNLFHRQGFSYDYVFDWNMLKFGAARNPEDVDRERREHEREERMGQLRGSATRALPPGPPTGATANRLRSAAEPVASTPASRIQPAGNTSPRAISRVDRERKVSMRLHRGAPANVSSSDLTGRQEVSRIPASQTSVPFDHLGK

How the values were obtained:
[1] = target: T1, GST–cytoRor2 (cytoplasmic domain of Ror2, amino acids 426–944) (mouse (from the plasmid name pcDNA-mRor2-HA)) (UniProt Q9Z138); test: pull-down; 10 pmol GST–cyto-Ror2 as bait with 700 μg total cell extracts from control, p120-catenin or CK1ε HEK293T CRISPR cells; Western blot; only the target purified
T1 sequence: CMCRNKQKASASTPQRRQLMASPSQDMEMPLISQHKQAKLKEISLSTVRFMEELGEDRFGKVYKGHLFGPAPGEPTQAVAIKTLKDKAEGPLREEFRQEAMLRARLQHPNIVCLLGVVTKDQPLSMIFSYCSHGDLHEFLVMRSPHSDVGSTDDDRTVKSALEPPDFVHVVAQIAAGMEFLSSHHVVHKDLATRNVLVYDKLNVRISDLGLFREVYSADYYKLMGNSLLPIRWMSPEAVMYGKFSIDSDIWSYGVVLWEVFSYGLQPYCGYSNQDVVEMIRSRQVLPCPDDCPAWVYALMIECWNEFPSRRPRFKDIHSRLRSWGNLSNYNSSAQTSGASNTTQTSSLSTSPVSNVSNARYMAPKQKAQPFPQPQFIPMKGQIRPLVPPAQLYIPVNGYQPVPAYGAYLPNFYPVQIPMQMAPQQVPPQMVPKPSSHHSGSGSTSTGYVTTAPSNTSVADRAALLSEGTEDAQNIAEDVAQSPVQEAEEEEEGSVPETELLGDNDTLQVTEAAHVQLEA

[2] = target: Ror2 (human (endogenous in HEK293T)) (UniProt Q01974); test: co-IP; Ror2 immunoprecipitated from extracts of control or p120-catenin CRISPR HEK293T cells treated with control or Wnt5a-conditioned medium for 5 min; associated proteins by Western blot
[3] = target: T2, GST–cytoRor2 (aa 563–944) (mouse (from the plasmid name pcDNA-mRor2-HA)) (UniProt Q9Z138); test: pull-down; Fig. S10; mapping of the CK1ε binding site on Ror2 fragments; legend not shown, source of CK1ε not told
T2 sequence: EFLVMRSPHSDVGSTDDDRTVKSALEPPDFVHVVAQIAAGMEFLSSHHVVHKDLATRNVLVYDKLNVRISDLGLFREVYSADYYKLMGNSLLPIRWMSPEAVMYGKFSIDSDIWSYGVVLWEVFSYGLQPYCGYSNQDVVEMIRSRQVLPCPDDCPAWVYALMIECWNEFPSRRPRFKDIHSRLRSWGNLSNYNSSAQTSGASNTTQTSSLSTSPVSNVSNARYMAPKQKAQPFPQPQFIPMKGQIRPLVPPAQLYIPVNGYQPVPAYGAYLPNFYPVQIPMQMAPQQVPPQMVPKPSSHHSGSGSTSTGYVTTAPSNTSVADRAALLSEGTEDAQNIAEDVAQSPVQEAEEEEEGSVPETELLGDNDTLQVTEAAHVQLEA

binding [1]	binding [2]	binding [3]	Substance
binds	binds	–	CK1ε (from UniProt P49674 1-416) (enzyme)
–	–	binds	CK1ε as used in the mapping of Fig. S10 (from UniProt P49674 1-416) (enzyme)
